{"source": "paper PMC4336329", "about": "(PLoS ONE, 2015)", "note": "Hit rate of the full screen: of about 310,000 compounds, about 2,200 (0.71%) showed an effect of 50% or more. The effect is printed as a negative number. This is one part of the list."}
{"target": "human ether-à-go-go-related gene (hERG) potassium channel (human, UniProt Q12809)", "sequence (Q12809 whole entry, looked up)": "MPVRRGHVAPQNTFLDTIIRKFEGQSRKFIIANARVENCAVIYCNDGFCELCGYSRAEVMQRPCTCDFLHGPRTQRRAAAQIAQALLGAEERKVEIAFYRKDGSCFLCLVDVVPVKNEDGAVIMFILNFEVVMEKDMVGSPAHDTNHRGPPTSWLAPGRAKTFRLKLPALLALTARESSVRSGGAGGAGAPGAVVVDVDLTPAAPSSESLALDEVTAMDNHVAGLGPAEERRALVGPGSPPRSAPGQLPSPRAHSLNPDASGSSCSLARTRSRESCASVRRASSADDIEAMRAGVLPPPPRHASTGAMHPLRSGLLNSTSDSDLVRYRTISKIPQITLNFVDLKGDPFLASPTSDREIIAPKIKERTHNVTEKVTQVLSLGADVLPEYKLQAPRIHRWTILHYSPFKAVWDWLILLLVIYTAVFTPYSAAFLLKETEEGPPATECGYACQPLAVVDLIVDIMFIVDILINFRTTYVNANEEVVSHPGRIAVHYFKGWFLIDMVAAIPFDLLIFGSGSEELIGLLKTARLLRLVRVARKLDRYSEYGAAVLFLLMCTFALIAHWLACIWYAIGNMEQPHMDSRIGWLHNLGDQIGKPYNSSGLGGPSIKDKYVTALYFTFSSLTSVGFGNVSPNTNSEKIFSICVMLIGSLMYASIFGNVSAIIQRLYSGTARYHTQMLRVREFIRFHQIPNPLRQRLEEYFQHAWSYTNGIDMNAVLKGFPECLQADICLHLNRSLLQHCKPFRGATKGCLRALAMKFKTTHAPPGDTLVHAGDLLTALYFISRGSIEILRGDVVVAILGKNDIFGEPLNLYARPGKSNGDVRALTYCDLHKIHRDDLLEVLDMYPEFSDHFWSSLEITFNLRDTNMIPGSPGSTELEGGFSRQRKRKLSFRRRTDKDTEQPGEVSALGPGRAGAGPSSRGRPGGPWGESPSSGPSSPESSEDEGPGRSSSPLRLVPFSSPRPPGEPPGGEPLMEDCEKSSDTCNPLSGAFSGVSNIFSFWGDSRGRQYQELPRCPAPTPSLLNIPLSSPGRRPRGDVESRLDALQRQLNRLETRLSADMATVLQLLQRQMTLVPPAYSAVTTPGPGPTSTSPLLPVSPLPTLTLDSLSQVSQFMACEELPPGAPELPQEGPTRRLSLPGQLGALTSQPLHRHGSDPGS", "assay": "primary screen, population patch clamp on CHO cells stably expressing hERG", "units": {"hERG current change (%, negative = inhibition) at 1uM": "%"}}
{"smiles": "COc1ccc(Cn2c(=O)[nH]c3cc(C(=O)N4CCN(Cc5ccccc5)CC4)ccc3c2=O)cc1", "hERG current change (%, negative = inhibition) at 1uM": 8.77}
{"smiles": "Cc1ccc(SCc2nc3ccccc3[nH]2)cc1", "hERG current change (%, negative = inhibition) at 1uM": -0.976}
{"smiles": "COc1ccc(-c2cn3c(C)c(C(=O)N4CCc5ccccc5C4)sc3n2)cc1", "hERG current change (%, negative = inhibition) at 1uM": 11.5}
{"smiles": "COc1ccccc1N1CCN(S(=O)(=O)c2ccc3c(c2)oc(=O)n3C)CC1", "hERG current change (%, negative = inhibition) at 1uM": -2.7}
{"smiles": "Cc1ccccc1S(=O)(=O)Nc1ncnc2sccc12", "hERG current change (%, negative = inhibition) at 1uM": 15.8}
{"smiles": "Cn1nnc(NCc2cc(Br)ccc2OCc2ccccc2F)n1", "hERG current change (%, negative = inhibition) at 1uM": 5.37}
{"smiles": "Cc1ccc(C)c(N(CC(=O)NC2CCCC2)C(=O)CCC(=O)Nc2cc(C)on2)c1", "hERG current change (%, negative = inhibition) at 1uM": 14.1}
{"smiles": "Cc1cc(C)cc(NC(=O)C2CCN(C(=O)c3cccs3)CC2)c1", "hERG current change (%, negative = inhibition) at 1uM": 11.6}
{"smiles": "Cc1ccc(S(=O)(=O)N2CCSC2c2ccco2)cc1", "note": "(centres unmarked)", "hERG current change (%, negative = inhibition) at 1uM": 6.48}
{"smiles": "C=CCc1ccc(OCCn2cccc2C=O)c(OC)c1", "hERG current change (%, negative = inhibition) at 1uM": -8.16}
{"smiles": "COCCCNC(=O)c1ccc(N(C)S(C)(=O)=O)cc1", "hERG current change (%, negative = inhibition) at 1uM": 10.9}
{"smiles": "CCOC(=O)C1CN(S(=O)(=O)c2ccc(C)cc2)c2cc(S(=O)(=O)CC)ccc2O1", "note": "(centres unmarked)", "hERG current change (%, negative = inhibition) at 1uM": -1.2}
{"smiles": "Cc1cc(C)nc(OC(C(=O)O)C(OCCc2ccccc2)(c2ccccc2)c2ccccc2)n1", "note": "(centres unmarked)", "hERG current change (%, negative = inhibition) at 1uM": 12.1}
{"smiles": "COc1ccc(Br)cc1C1Nc2cccc3cccc(c23)N1", "hERG current change (%, negative = inhibition) at 1uM": 15.4}
{"smiles": "CCc1cccc(NC(=O)C2CCCN(c3ncnc4c3nc3n4CCCCC3)C2)c1", "note": "(centres unmarked)", "hERG current change (%, negative = inhibition) at 1uM": -7.04}
{"smiles": "Cc1cc(N2CCN(Cc3nc(-c4ccc(Cl)cc4)oc3C)CC2)cc(C)n1", "hERG current change (%, negative = inhibition) at 1uM": -57.8}
{"smiles": "COc1ccccc1NC(=S)NNC(=S)Nc1ccc(OC(F)F)cc1", "hERG current change (%, negative = inhibition) at 1uM": 14.8}
{"smiles": "O=C(COc1cccc(C(F)(F)F)c1)N1CCN(c2ccccc2O)CC1", "hERG current change (%, negative = inhibition) at 1uM": 5.44}
{"smiles": "CSc1ccc(S(=O)(=O)N(CC(=O)NN=C2CCN(C)CC2)c2ccc(C)cc2)cc1", "hERG current change (%, negative = inhibition) at 1uM": 4.73}
{"smiles": "CC1=C(C(=O)Nc2ccccc2)C(c2ccncc2)n2nnnc2N1", "note": "(centres unmarked)", "hERG current change (%, negative = inhibition) at 1uM": -2.54}
{"smiles": "Cc1c(C)c2c(OCC(=O)N3CCC(C(=O)NCC(C)C)CC3)cc3c(c2oc1=O)CCC(C)(C)O3", "hERG current change (%, negative = inhibition) at 1uM": -8.99}
{"smiles": "CCOC(=O)N1CCN(C(=O)C2CCN(C(=O)c3cc4sccc4n3CC)CC2)CC1", "hERG current change (%, negative = inhibition) at 1uM": -0.112}
{"smiles": "Cc1cc(C(=O)Cn2ncc(Cl)c(Cl)c2=O)c(C)n1CC(F)(F)F", "hERG current change (%, negative = inhibition) at 1uM": 27.4}
{"smiles": "COc1ccc(/C=N/NC(=O)C(=O)NCC2CCCO2)cc1", "note": "(centres unmarked)", "hERG current change (%, negative = inhibition) at 1uM": -25.3}
{"smiles": "Nc1c(-c2ccccc2)c(CN2CCOCC2)nn1-c1ccccc1", "hERG current change (%, negative = inhibition) at 1uM": 7.4}
{"smiles": "Cc1ccc(NS(=O)(=O)c2cc3[nH]c(=O)c(=O)[nH]c3cc2C)c(C)c1", "hERG current change (%, negative = inhibition) at 1uM": 5.75}
{"smiles": "COc1ccc(C(CNC(=O)Cc2ccc(Cl)c(Cl)c2)N(C)C)cc1", "note": "(centres unmarked)", "hERG current change (%, negative = inhibition) at 1uM": -9.37}
{"smiles": "Cc1nn(-c2ccccc2)c2c1C(c1c(C)[nH]c(C#N)c1C)C(C#N)=C(N)O2", "note": "(centres unmarked)", "hERG current change (%, negative = inhibition) at 1uM": 9.09}
{"smiles": "CCOC(=O)N1CCC(c2cc(=O)n3[nH]c(-c4ccccc4)cc3n2)CC1", "hERG current change (%, negative = inhibition) at 1uM": 13.6}
{"smiles": "S=C(NCCCN1CCOCC1)NC1CC1", "hERG current change (%, negative = inhibition) at 1uM": 15.4}
{"smiles": "COc1ccc2c(c1)CCc1c(C(=O)NC3CCCCC3)noc1-2", "hERG current change (%, negative = inhibition) at 1uM": 18.1}
{"smiles": "CCOC(=O)c1cc(-c2ccccc2)sc1NC(=O)COC(=O)c1cccc(S(N)(=O)=O)c1", "hERG current change (%, negative = inhibition) at 1uM": 14}
{"smiles": "N#CN1CCC(NS(=O)(=O)c2ccc(C(F)(F)F)cc2)C1", "note": "(centres unmarked)", "hERG current change (%, negative = inhibition) at 1uM": 7.36}
{"smiles": "CC(C)NS(=O)(=O)c1ccc(OCC(=O)Nc2ccc3c(c2)OCO3)c(Cl)c1", "hERG current change (%, negative = inhibition) at 1uM": 6.26}
{"smiles": "Cc1cccc(-n2c(C)n[nH]c2=S)c1", "hERG current change (%, negative = inhibition) at 1uM": 1.26}
{"smiles": "CC(CCc1ccccc1)NC(=O)COC(=O)c1ccc(F)cc1.CN(C)C=O", "note": "(centres unmarked)", "hERG current change (%, negative = inhibition) at 1uM": 18.1}
{"smiles": "CCN(CC)c1ccc(C=Nc2ccc(C)cc2)c(O)c1", "hERG current change (%, negative = inhibition) at 1uM": 11.2}
{"smiles": "CCc1cccc2c(C(=O)COC(=O)c3cnc(C)cn3)c[nH]c12", "hERG current change (%, negative = inhibition) at 1uM": 6.76}
{"smiles": "CCOC(=O)CC(N)c1ccc2c(c1)OCO2.Cl", "note": "(centres unmarked)", "hERG current change (%, negative = inhibition) at 1uM": 13.1}
{"smiles": "CCOc1ccccc1C1CC(=O)NC(SCC)=C1C#N", "note": "(centres unmarked)", "hERG current change (%, negative = inhibition) at 1uM": 13.1}
{"smiles": "COc1ccc(NC(=O)c2sccc2C)cn1", "hERG current change (%, negative = inhibition) at 1uM": 2.92}
{"smiles": "COc1ccc(NS(=O)(=O)c2c(F)cc(F)c(Cl)c2F)cc1S(=O)(=O)N1CCCCC1", "hERG current change (%, negative = inhibition) at 1uM": 0.639}
{"smiles": "CCOC(=O)/C(C#N)=N\\Nc1ccc(S(=O)(=O)Nc2nc(C)cc(C)n2)cc1", "hERG current change (%, negative = inhibition) at 1uM": 10}
{"smiles": "O=c1[nH]c(/C=C\\c2ccc(O)cc2)nc(O)c1[N+](=O)[O-]", "hERG current change (%, negative = inhibition) at 1uM": 12.3}
{"smiles": "CC(O)C(NS(=O)(=O)c1ccc(Cl)cc1)C(=O)OCC(=O)Nc1cccnc1Cl", "note": "(centres unmarked)", "hERG current change (%, negative = inhibition) at 1uM": 12.1}
{"smiles": "O=c1[nH]ncc2c3ccccc3n(Cc3cccc(Cl)c3)c12", "hERG current change (%, negative = inhibition) at 1uM": 7.24}
{"smiles": "Nc1nc(C(F)(F)F)cc(=O)[nH]1", "hERG current change (%, negative = inhibition) at 1uM": 12.1}
{"smiles": "CCOC(=O)c1c(N)n(CCN2CCOCC2)c2nc3ccccc3nc12", "hERG current change (%, negative = inhibition) at 1uM": -16.6}
{"smiles": "CCOc1cc(N2CCOCC2)c(OCC)cc1NCC(=O)N1CCN(Cc2ccccc2)CC1.Cl", "hERG current change (%, negative = inhibition) at 1uM": 9.92}
{"smiles": "NS(=O)(=O)c1ccc(CCNC(=O)C2CCN(S(=O)(=O)c3ccc(Br)s3)CC2)cc1", "hERG current change (%, negative = inhibition) at 1uM": 18.7}
{"smiles": "Cc1ccc(C(=O)N2CCN(Cc3ccc4c(c3)OCO4)CC2)cc1[N+](=O)[O-]", "hERG current change (%, negative = inhibition) at 1uM": -2.15}
{"smiles": "O=C(O)C1CC(O)CN1S(=O)(=O)c1ccc2ccccc2c1", "note": "(centres unmarked)", "hERG current change (%, negative = inhibition) at 1uM": 6.2}
{"smiles": "COc1ccc(Nc2nc(N3CCOCC3)nc(N3CCOCC3)n2)cc1", "hERG current change (%, negative = inhibition) at 1uM": 15.6}
{"smiles": "O=C(O)c1ccccc1C(=O)c1ccc(Sc2ccc(Cl)cc2)c([N+](=O)[O-])c1", "hERG current change (%, negative = inhibition) at 1uM": 7.46}
{"smiles": "CC1(C)CC(=O)C=C(NC2CCCCCCC2)C1", "hERG current change (%, negative = inhibition) at 1uM": -2.54}
{"smiles": "CCCCNC(=O)NC(C(=O)OC)C12CC3CC(CC(C3)C1)C2", "note": "(centres unmarked)", "hERG current change (%, negative = inhibition) at 1uM": -3.05}
